In the supplement of paper PMC8728848:
Some of the results follow.

What was measured:
Assay in all cases: glycan array binding signal (z-score within array); higher = stronger binding
Conditions in all cases: glycan notation: IUPAC condensed, linker removed
Gal(b1-2)Gal = target: Gal(b1-2)Gal
Procedure, shortened: (§1)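 From the Consortium for Functional Glycomics database, 3228 arrays were curated, keeping only those whose protein sequence was available. Binding is given as a within-array Z-score averaged across arrays sharing a protein sequence and across linkers. Negative Z-scores can be read as non-binding.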

Gal(b1-3)Gal = target: Gal(b1-3)Gal
Procedure, shortened: as §1

Gal(b1-3)Gal(b1-4)GlcNAc = target: Gal(b1-3)Gal(b1-4)GlcNAc
Procedure, shortened: as §1

Gal(b1-3)GalNAc = target: Gal(b1-3)GalNAc
Procedure, shortened: as §1

[1] = target: Gal(b1-3)GalNAc(a1-3)[Fuc(a1-2)]Gal(b1-4)Glc
Procedure, shortened: as §1

[2] = target: Gal(b1-3)GalNAc(a1-3)[Fuc(a1-2)]Gal(b1-4)GlcNAc
Procedure, shortened: as §1

Gal(b1-3)GalNAc(b1-3)Gal = target: Gal(b1-3)GalNAc(b1-3)Gal
Procedure, shortened: as §1

[3] = target: Gal(b1-3)GalNAc(b1-3)Gal(a1-4)Gal(b1-4)Glc
Procedure, shortened: as §1

[4] = target: Gal(b1-3)GalNAc(b1-4)Gal(b1-4)Glc
Procedure, shortened: as §1

[5] = target: Gal(b1-3)GalNAc(b1-4)[Neu5Ac(a2-3)]Gal(b1-4)Glc
Procedure, shortened: as §1

Gal(b1-3)GlcNAc = target: Gal(b1-3)GlcNAc
Procedure, shortened: as §1

[6] = target: Gal(b1-3)GlcNAc(a1-3)Gal(b1-4)GlcNAc
Procedure, shortened: as §1

[7] = target: Gal(b1-3)GlcNAc(a1-6)Gal(b1-4)GlcNAc
Procedure, shortened: as §1

Gal(b1-3)GlcNAc(b1-2)Man = target: Gal(b1-3)GlcNAc(b1-2)Man
Procedure, shortened: as §1

[8] = target: Gal(b1-3)GlcNAc(b1-2)Man(a1-3)[Gal(b1-3)GlcNAc(b1-2)Man(a1-6)]Man(b1-4)GlcNAc(b1-4)GlcNAc
Procedure, shortened: as §1

[9] = target: Gal(b1-3)GlcNAc(b1-2)Man(a1-3)[Gal(b1-3)GlcNAc(b1-2)Man(a1-6)]Man(b1-4)GlcNAc(b1-4)[Fuc(a1-6)]GlcNAc
Procedure, shortened: as §1

[10] = target: Gal(b1-3)GlcNAc(b1-2)Man(a1-3)[GlcNAc(b1-4)][Gal(b1-3)GlcNAc(b1-2)Man(a1-6)]Man(b1-4)GlcNAc(b1-4)GlcNAc
Procedure, shortened: as §1

[11] = target: Gal(b1-3)GlcNAc(b1-2)[Gal(b1-3)GlcNAc(b1-6)]Man(a1-6)[Gal(b1-3)GlcNAc(b1-2)Man(a1-3)]Man(b1-4)GlcNAc(b1-4)GlcNAc
Procedure, shortened: as §1

[12] = target: Gal(b1-3)GlcNAc(b1-3)Gal(b1-3)GlcNAc
Procedure, shortened: as §1

[13] = target: Gal(b1-3)GlcNAc(b1-3)Gal(b1-4)Glc
Procedure, shortened: as §1

[14] = target: Gal(b1-3)GlcNAc(b1-3)Gal(b1-4)GlcNAc
Procedure, shortened: as §1

[15] = target: Gal(b1-3)GlcNAc(b1-3)Gal(b1-4)GlcNAc(b1-2)Man(a1-3)[Gal(b1-3)GlcNAc(b1-3)Gal(b1-4)GlcNAc(b1-2)Man(a1-6)]Man(b1-4)GlcNAc(b1-4)GlcNAc
Procedure, shortened: as §1

[16] = target: Gal(b1-3)GlcNAc(b1-3)Gal(b1-4)GlcNAc(b1-2)[Gal(b1-3)GlcNAc(b1-3)Gal(b1-4)GlcNAc(b1-6)]Man(a1-6)[Gal(b1-3)GlcNAc(b1-3)Gal(b1-4)GlcNAc(b1-2)Man(a1-3)]Man(b1-4)GlcNAc(b1-4)[Fuc(a1-6)]GlcNAc
Procedure, shortened: as §1

[17] = target: Gal(b1-3)GlcNAc(b1-3)Gal(b1-4)GlcNAc(b1-3)Gal(b1-4)GlcNAc(b1-2)[Gal(b1-3)GlcNAc(b1-3)Gal(b1-4)GlcNAc(b1-3)Gal(b1-4)GlcNAc(b1-6)]Man(a1-6)[Gal(b1-3)GlcNAc(b1-3)Gal(b1-4)GlcNAc(b1-3)Gal(b1-4)GlcNAc(b1-2)Man(a1-3)]Man(b1-4)GlcNAc(b1-4)[Fuc(a1-6)]GlcNAc
Procedure, shortened: as §1

[18] = target: Gal(b1-3)GlcNAc(b1-3)Gal(b1-4)GlcNAc(b1-6)[Gal(b1-3)GlcNAc(b1-3)]Gal(b1-4)Glc
Procedure, shortened: as §1

[19] = target: Gal(b1-3)GlcNAc(b1-3)Gal(b1-4)[Fuc(a1-3)]GlcNAc
Procedure, shortened: as §1

[20] = target: Gal(b1-3)GlcNAc(b1-3)Gal(b1-4)[Fuc(a1-3)]GlcNAc(b1-6)[Gal(b1-3)GlcNAc(b1-3)]Gal(b1-4)Glc
Procedure, shortened: as §1

[21] = target: Gal(b1-3)GlcNAc(b1-3)GalNAc
Procedure, shortened: as §1

[22] = target: Gal(b1-3)GlcNAc(b1-6)Gal(b1-4)GlcNAc
Procedure, shortened: as §1

[23] = target: Gal(b1-3)GlcNAc(b1-6)GalNAc
Procedure, shortened: as §1

[24] = target: Gal(b1-3)GlcNAc(b1-6)[Gal(b1-3)]GalNAc
Procedure, shortened: as §1

Gal(b1-3)GlcNAc6S = target: Gal(b1-3)GlcNAc6S
Procedure, shortened: as §1

[25] = target: Gal(b1-3)[Fuc(a1-4)]GlcNAc
Procedure, shortened: as §1

[26] = target: Gal(b1-3)[Fuc(a1-4)]GlcNAc(b1-2)Man
Procedure, shortened: as §1

[27] = target: Gal(b1-3)[Fuc(a1-4)]GlcNAc(b1-2)Man(a1-3)[Gal(b1-3)[Fuc(a1-4)]GlcNAc(b1-2)Man(a1-6)]Man(b1-4)GlcNAc(b1-4)[Fuc(a1-6)]GlcNAc
Procedure, shortened: as §1

[28] = target: Gal(b1-3)[Fuc(a1-4)]GlcNAc(b1-3)Gal(b1-3)[Fuc(a1-4)]GlcNAc
Procedure, shortened: as §1

[29] = target: Gal(b1-3)[Fuc(a1-4)]GlcNAc(b1-3)Gal(b1-4)[Fuc(a1-3)]GlcNAc
Procedure, shortened: as §1

[30] = target: Gal(b1-3)[Fuc(a1-4)]GlcNAc(b1-6)GalNAc
Procedure, shortened: as §1

[31] = target: Gal(b1-3)[GlcNAc(b1-6)]GalNAc
Procedure, shortened: as §1

[32] = target: Gal(b1-3)[Neu5Ac(a2-6)]GalNAc
Procedure, shortened: as §1

[33] = target: Gal(b1-3)[Neu5Ac(a2-6)]GlcNAc(b1-4)Gal(b1-4)Glc
Procedure, shortened: as §1

[34] = target: Gal(b1-3)[Neu5Ac(b2-6)]GalNAc
Procedure, shortened: as §1

Gal(b1-4)Gal = target: Gal(b1-4)Gal
Procedure, shortened: as §1

[35] = target: Gal(b1-4)GalNAc(a1-3)[Fuc(a1-2)]Gal(b1-4)GlcNAc
Procedure, shortened: as §1

[36] = target: Gal(b1-4)GalNAc(b1-3)[Fuc(a1-2)]Gal(b1-4)GlcNAc
Procedure, shortened: as §1

B1: PX14343H-pdi-506-26-506 (Parabacteroides distasonis) (protein)
chain: QPTGTMTTDSKLTSKESALALTNSAYLKNTVFNKMTPGWGCNTILLLEYMTGKATSENSQSNYKDFQDLLVSDRSLYIEDWWQDCYAGIANCNLALQKLGEFENLDASLVNGYMAEVKFMRALYYFYLVRIFGDVPKITTVQSELGELQVSRAPVKEIYDEIIIPDLLEAEQSDLAFSDHTGRVSMGAVKALLADVYLTYAGYPLQGGKSYYAESAKRSLEVIKSNEYTLFTDYESLRLPSQNNKGEFIYQVQFSLNKRHNESVRIFLPSRSGISAYDLEYGSLIPTKEFVESFEKGDKRTEEKQYFFTNYKGHPSKFSPGAAELEFMDLNGYYIYKFFDQVAVDNTAKSDLNWSVYRYTDVLLMYAEAQVNADGTPNQQSIDIVNQIRGRAGLAPFKQTNASAFLEEVWDQRYFDLCYENKMWFDMLRTRKIRDDKSGEYVDFIGYKTNWGKVYTETQLLFPIPLSERQANPNLTQNQGY
Gal(b1-2)Gal
  glycan array binding signal (z-score): -0.367
Gal(b1-3)Gal
  glycan array binding signal (z-score): -0.461
Gal(b1-3)Gal(b1-4)GlcNAc
  glycan array binding signal (z-score): -0.196
Gal(b1-3)GalNAc
  glycan array binding signal (z-score): -0.263
[1]
  glycan array binding signal (z-score): -0.478
[2]
  glycan array binding signal (z-score): -0.451
Gal(b1-3)GalNAc(b1-3)Gal
  glycan array binding signal (z-score): -0.438
[3]
  glycan array binding signal (z-score): -0.267
[4]
  glycan array binding signal (z-score): -0.168
[5]
  glycan array binding signal (z-score): -0.012
Gal(b1-3)GlcNAc
  glycan array binding signal (z-score): -0.308
[6]
  glycan array binding signal (z-score): 0.214
[7]
  glycan array binding signal (z-score): -0.456
Gal(b1-3)GlcNAc(b1-2)Man
  glycan array binding signal (z-score): -0.39
[8]
  glycan array binding signal (z-score): 2.61
[9]
  glycan array binding signal (z-score): 0.737
[10]
  glycan array binding signal (z-score): 0.752
[11]
  glycan array binding signal (z-score): 0.464
[12]
  glycan array binding signal (z-score): -0.362
[13]
  glycan array binding signal (z-score): -0.454
[14]
  glycan array binding signal (z-score): -0.345
[15]
  glycan array binding signal (z-score): 0.622
[16]
  glycan array binding signal (z-score): 2.67
[17]
  glycan array binding signal (z-score): 3.2
[18]
  glycan array binding signal (z-score): -0.156
[19]
  glycan array binding signal (z-score): -0.401
[20]
  glycan array binding signal (z-score): -0.383
[21]
  glycan array binding signal (z-score): 0.667
[22]
  glycan array binding signal (z-score): 1.69
[23]
  glycan array binding signal (z-score): 0.717
[24]
  glycan array binding signal (z-score): 0.247
Gal(b1-3)GlcNAc6S
  glycan array binding signal (z-score): -0.356
[25]
  glycan array binding signal (z-score): -0.144
[26]
  glycan array binding signal (z-score): -0.12
[27]
  glycan array binding signal (z-score): 0.161
[28]
  glycan array binding signal (z-score): -0.288
[29]
  glycan array binding signal (z-score): -0.453
[30]
  glycan array binding signal (z-score): 1.07
[31]
  glycan array binding signal (z-score): -0.318
[32]
  glycan array binding signal (z-score): -0.049
[33]
  glycan array binding signal (z-score): -0.265
[34]
  glycan array binding signal (z-score): -0.512
Gal(b1-4)Gal
  glycan array binding signal (z-score): 1.08
[35]
  glycan array binding signal (z-score): -0.399
[36]
  glycan array binding signal (z-score): -0.379
